This is one part of the list.
Legend:
Experiment in all cases: glycan array binding signal (z-score within array); higher = stronger binding
Details in all cases: glycan notation: IUPAC condensed, linker removed
[1] = biological target: 3dGal(b1-3)[Fuc(a1-4)]Glc
Outline: (§1)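 Glycan array data came from 3228 arrays in the Consortium for Functional Glycomics database, and only arrays with an available protein sequence were kept. Glycan names were put into IUPAC-condensed notation, and columns mapping to the same glycan were averaged. The binding signal is a within-array Z-score, averaged across arrays of one protein sequence run at different concentrations or buffers and across linkers. A negative Z-score can be read as non-binding.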

[2] = biological target: 3dGal(b1-4)Glc
Outline: as §1

[3] = biological target: 4d8dNeu5Ac(a2-3)Gal(b1-4)Glc
Outline: as §1

[4] = biological target: 4dNeu5Ac(a2-3)Gal(b1-4)Glc
Outline: as §1

[5] = biological target: 7dNeu5Ac(a2-3)Gal(b1-4)Glc
Outline: as §1

[6] = biological target: 8dNeu5Ac(a2-3)Gal(b1-4)Glc
Outline: as §1

[7] = biological target: 9dNeu5Ac(a2-3)Gal(b1-4)Glc
Outline: as §1

[8] = biological target: Ara(a1-5)Ara(a1-5)Ara(a1-5)Ara(a1-5)Ara(a1-5)Ara
Outline: as §1

[9] = biological target: Ara(a1-5)Ara(a1-5)Ara(a1-5)Ara(a1-5)Ara(a1-5)Ara(a1-5)Ara
Outline: as §1

[10] = biological target: Fuc(a1-2)Gal
Outline: as §1

[11] = biological target: Fuc(a1-2)Gal(b1-3)GlcNAc(b1-3)Gal(b1-4)Glc
Outline: as §1

[12] = biological target: Fuc(a1-2)Gal(b1-3)GlcNAc(b1-3)[Fuc(a1-3)[Gal(b1-4)]GlcNAc(b1-6)]Gal(b1-4)Glc
Outline: as §1

[13] = biological target: Fuc(a1-2)Gal(b1-3)[Fuc(a1-4)]GlcNAc(b1-3)Gal(b1-4)Glc
Outline: as §1

[14] = biological target: Fuc(a1-2)Gal(b1-3)[Fuc(a1-4)]GlcNAc(b1-3)Gal(b1-4)[Fuc(a1-3)]GlcNAc(b1-3)Gal(b1-4)Glc
Outline: as §1

[15] = biological target: Fuc(a1-2)Gal(b1-3)[Fuc(a1-4)]GlcNAc(b1-3)[Fuc(a1-2)]Gal(b1-4)Glc
Outline: as §1

[16] = biological target: Fuc(a1-2)Gal(b1-3)[Fuc(a1-4)]GlcNAc(b1-3)[Fuc(a1-3)[Gal(b1-4)]GlcNAc(b1-6)]Gal(b1-4)Glc
Outline: as §1

[17] = biological target: Fuc(a1-2)Gal(b1-3)[Fuc(a1-4)]GlcNAc(b1-3)[Gal(b1-4)GlcNAc(b1-6)]Gal(b1-4)Glc
Outline: as §1

[18] = biological target: Fuc(a1-2)Gal(b1-4)[Fuc(a1-3)]GlcNAc(b1-3)Gal(b1-4)Glc
Outline: as §1

[19] = biological target: Fuc(a1-2)Gal(b1-4)[Fuc(a1-3)]GlcNAc(b1-3)[Fuc(a1-2)]Gal(b1-4)Glc
Outline: as §1

[20] = biological target: Fuc(a1-2)[Gal(a1-3)]Gal
Outline: as §1

[21] = biological target: Fuc(a1-2)[Gal(a1-3)]Gal(b1-4)GlcNAc(b1-3)Gal(b1-4)Glc
Outline: as §1

[22] = biological target: Fuc(a1-2)[GalNAc(a1-3)]Gal
Outline: as §1

[23] = biological target: Fuc(a1-2)[GalNAc(a1-3)]Gal(b1-3)GlcNAc(b1-3)Gal(b1-4)Glc
Outline: as §1

[24] = biological target: Fuc(a1-2)[GalNAc(a1-3)]Gal(b1-3)[Fuc(a1-4)]GlcNAc(b1-3)Gal(b1-4)Glc
Outline: as §1

[25] = biological target: Fuc(a1-2)[Neu5Ac(bond)]Gal(b1-3)GlcNAc(b1-3)Gal(b1-4)Glc
Outline: as §1

[26] = biological target: Fuc(a1-3)GlcNAc6S
Outline: as §1

[27] = biological target: Fuc(a1-3)[3dGal(b1-4)]Glc
Outline: as §1

[28] = biological target: Fuc(a1-3)[3dGal(b1-4)]GlcNAc(b1-3)Gal
Outline: as §1

[29] = biological target: Fuc(a1-3)[Gal(b1-4)]Glc
Outline: as §1

[30] = biological target: Fuc(a1-3)[Gal(b1-4)]GlcNAc
Outline: as §1

[31] = biological target: Fuc(a1-3)[Gal(b1-4)]GlcNAc(b1-3)Gal(b1-4)Glc
Outline: as §1

[32] = biological target: Fuc(a1-3)[Gal(b1-4)]GlcNAc(b1-3)Gal(b1-4)[Fuc(a1-3)]Glc
Outline: as §1

[33] = biological target: Fuc(a1-3)[Gal(b1-4)]GlcNAc(b1-3)[Fuc(a1-2)]Gal(b1-4)Glc
Outline: as §1

[34] = biological target: Fuc(a1-3)[Gal(b1-4)]GlcNAc(b1-3)[Fuc(a1-3)[Gal(b1-4)]GlcNAc(b1-6)]Gal(b1-4)Glc
Outline: as §1

[35] = biological target: Fuc(a1-3)[Gal3S(b1-4)]Glc
Outline: as §1

[36] = biological target: Fuc(a1-3)[Gal3S(b1-4)]GlcNAc
Outline: as §1

[37] = biological target: Fuc(a1-3)[Gal3S(b1-4)]GlcNAc(b1-3)Gal
Outline: as §1

[38] = biological target: Fuc(a1-3)[Gal3S(b1-4)]GlcNAc(b1-3)Gal(b1-4)Glc
Outline: as §1

[39] = biological target: Fuc(a1-3)[Gal3S(b1-4)]GlcNAc6S(b1-3)Gal(b1-4)Glc
Outline: as §1

[40] = biological target: Fuc(a1-3)[Gal6S(b1-4)]GlcNAc(b1-3)Gal(b1-4)Glc
Outline: as §1

[41] = biological target: Fuc(a1-6)GlcNAc
Outline: as §1

[42] = biological target: Gal(a1-4)Gal(b1-4)Glc
Outline: as §1

[43] = biological target: Gal(a1-4)Gal(b1-4)GlcNAc
Outline: as §1

[44] = biological target: Gal(a1-6)Glc
Outline: as §1

[45] = biological target: Gal(b1-3)GalNAc
Outline: as §1

[46] = biological target: Gal(b1-3)GalNAc(b1-4)Gal(b1-4)Glc
Outline: as §1

[47] = biological target: Gal(b1-3)GalNAc(b1-4)Gal3S(b1-4)Glc
Outline: as §1

[48] = biological target: Gal(b1-3)GalNAc(b1-4)[Neu5Ac(a2-3)]Gal(b1-4)Glc
Outline: as §1

[49] = biological target: Gal(b1-3)GalNAc(b1-4)[Neu5Gc(a2-3)]Gal(b1-4)Glc
Outline: as §1

[50] = biological target: Gal(b1-3)GlcNAc
Outline: as §1

[51] = biological target: Gal(b1-3)GlcNAc(b1-3)Gal(b1-4)Glc
Outline: as §1

[52] = biological target: Gal(b1-3)GlcNAc(b1-3)Gal(b1-4)GlcNAc(b1-3)Gal(b1-4)Glc
Outline: as §1

[53] = biological target: Gal(b1-3)GlcNAc(b1-3)Gal(b1-4)GlcNAc(b1-6)[Gal(b1-3)GlcNAc(b1-3)]Gal(b1-4)Glc
Outline: as §1

[54] = biological target: Gal(b1-3)GlcNAc(b1-3)Gal(b1-4)[Fuc(a1-3)]GlcNAc(b1-3)Gal(b1-4)Glc
Outline: as §1

[55] = biological target: Gal(b1-3)GlcNAc(b1-3)Gal(b1-4)[Fuc(a1-3)]GlcNAc(b1-6)[Gal(b1-3)GlcNAc(b1-3)]Gal(b1-4)Glc
Outline: as §1

[56] = biological target: Gal(b1-3)GlcNAc(b1-3)[Fuc(a1-3)[Gal(b1-4)]GlcNAc(b1-6)]Gal(b1-4)Glc
Outline: as §1

[57] = biological target: Gal(b1-3)GlcNAc(b1-3)[Fuc(a1-3)[Gal(b1-4)]GlcNAc(b1-6)]Gal(b1-4)]GlcNAc(b1-6)[Gal(b1-4)]GlcNAc(b1-3)]Gal(b1-4)Glc
Outline: as §1

[58] = biological target: Gal(b1-3)GlcNAc(b1-3)[Gal(b1-4)GlcNAc(b1-6)]Gal(b1-4)Glc
Outline: as §1

[59] = biological target: Gal(b1-3)GlcNAc(b1-3)[Gal(b1-4)GlcNAc(b1-6)]Gal(b1-4)GlcNAc(b1-6)[Gal(b1-3)GlcNAc(b1-3)]Gal(b1-4)Glc
Outline: as §1

[60] = biological target: Gal(b1-3)[Fuc(a1-4)]GlcNAc
Outline: as §1

[61] = biological target: Gal(b1-3)[Fuc(a1-4)]GlcNAc(b1-3)Gal(b1-4)Glc
Outline: as §1

[62] = biological target: Gal(b1-3)[Fuc(a1-4)]GlcNAc(b1-3)Gal(b1-4)[Fuc(a1-3)]Glc
Outline: as §1

[63] = biological target: Gal(b1-3)[Fuc(a1-4)]GlcNAc(b1-3)Gal(b1-4)[Fuc(a1-3)]GlcNAc(b1-3)Gal(b1-4)Glc
Outline: as §1

[64] = biological target: Gal(b1-3)[Fuc(a1-4)]GlcNAc(b1-3)Gal(b1-4)[Fuc(a1-3)]GlcNAc(b1-6)[Gal(b1-3)[Fuc(a1-4)]GlcNAc(b1-3)]Gal(b1-4)Glc
Outline: as §1

[65] = biological target: Gal(b1-3)[Fuc(a1-4)]GlcNAc(b1-3)[Fuc(a1-3)[Gal(b1-4)]GlcNAc(b1-6)]Gal(b1-4)Glc
Outline: as §1

[66] = biological target: Gal(b1-3)[Neu5Ac(a2-6)]GlcNAc(b1-3)Gal(b1-4)Glc
Outline: as §1

[67] = biological target: Gal(b1-4)Glc
Outline: as §1

[68] = biological target: Gal(b1-4)GlcNAc
Outline: as §1

[69] = biological target: Gal(b1-4)GlcNAc(b1-2)Man(a1-3)[Gal(b1-4)GlcNAc(b1-2)Man(a1-6)]Man(b1-4)GlcNAc(b1-4)GlcNAc
Outline: as §1

[70] = biological target: Gal(b1-4)GlcNAc(b1-2)Man(a1-3)[Gal(b1-4)GlcNAc(b1-2)Man(a1-6)]Man(b1-4)GlcNAc(b1-4)[Fuc(a1-6)]GlcNAc
Outline: as §1

[71] = biological target: Gal(b1-4)GlcNAc(b1-2)Man(a1-3)[Gal(b1-4)GlcNAc(b1-2)Man(a1-6)][GlcNAc(b1-4)]Man(b1-4)GlcNAc(b1-4)[Fuc(a1-6)]GlcNAc
Outline: as §1

[72] = biological target: Gal(b1-4)GlcNAc(b1-2)Man(a1-3)[Man(a1-6)]Man(b1-4)GlcNAc(b1-4)GlcNAc
Outline: as §1

[73] = biological target: Gal(b1-4)GlcNAc(b1-2)Man(a1-6)[GlcNAc(b1-2)Man(a1-3)]Man(b1-4)GlcNAc(b1-4)[Fuc(a1-6)]GlcNAc
Outline: as §1

[74] = biological target: Gal(b1-4)GlcNAc(b1-2)Man(a1-6)[Man(a1-3)]Man(b1-4)GlcNAc(b1-4)GlcNAc
Outline: as §1

[75] = biological target: Gal(b1-4)GlcNAc(b1-2)Man(a1-6)[Man(a1-3)]Man(b1-4)GlcNAc(b1-4)[Fuc(a1-6)]GlcNAc
Outline: as §1

Measured: glycan array binding signal (z-score)

B1: HysACBM (Streptococcus pneumoniae), Q54873 (protein)
chain: KNLVENGDFGQTEDGSSPWTGSKAQGWSAWVDQKNSADASTRVIEAKDGAITISSHEKLRAALHRMVPIEAKKKYKLRFKIKTDNKIGIAKVRIIEESGKDKRLWNSATTSGTKDWQTIEADYSPTLDVDKIKLELFYETGTGTVSFKDIELVEVADQLS
0.045: [67]
0.088: [39]
0.026: [10]
-0.03: [72]
-0.058: [68]
0.047: [17]
0.213: [56]
-0.057: [41]
-0.073: [19]
0.076: [50]
0.584: [16]
0.007: [32]
0.097: [18]
-0.091: [1] | [2] | [3] | [4] | [5] | [6] | [7] | [8] | [9] | [11] | [12] | [14] | [21] | [22] | [23] | [24] | [25] | [26] | [27] | [28] | [29] | [30] | [31] | [33] | [34] | [35] | [36] | [37] | [38] | [42] | [43] | [47] | [48] | [49] | [51] | [52] | [53] | [54] | [55] | [57] | [58] | [60] | [61] | [62] | [64] | [65] | [66] | [69] | [70] | [71] | [73] | [74]
0.12: [44]
0.174: [46]
-0.054: [13]
-0.004: [63]
-0.08: [45]
0.039: [15]
-0.017: [59]
-0.007: [75]
-0.085: [20] | [40]
